# Experimental data as given in article PMC4336329 (PLoS ONE, 2015).
# Among all 310,000 compounds or so, about 14,000 (4.5%) showed an effect of 50% or more. Effects have a minus sign here. The list shows a part of the results.
# Target: human ether-à-go-go-related gene (hERG) potassium channel (human, UniProt Q12809)
# Experiment: primary screen, population patch clamp on CHO cells stably expressing hERG
# 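Further: peak tail current of the secondary pulse compared with the same well before compound.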
# human ether-à-go-go-related gene (hERG) potassium channel, sequence (Q12809 whole entry, looked up): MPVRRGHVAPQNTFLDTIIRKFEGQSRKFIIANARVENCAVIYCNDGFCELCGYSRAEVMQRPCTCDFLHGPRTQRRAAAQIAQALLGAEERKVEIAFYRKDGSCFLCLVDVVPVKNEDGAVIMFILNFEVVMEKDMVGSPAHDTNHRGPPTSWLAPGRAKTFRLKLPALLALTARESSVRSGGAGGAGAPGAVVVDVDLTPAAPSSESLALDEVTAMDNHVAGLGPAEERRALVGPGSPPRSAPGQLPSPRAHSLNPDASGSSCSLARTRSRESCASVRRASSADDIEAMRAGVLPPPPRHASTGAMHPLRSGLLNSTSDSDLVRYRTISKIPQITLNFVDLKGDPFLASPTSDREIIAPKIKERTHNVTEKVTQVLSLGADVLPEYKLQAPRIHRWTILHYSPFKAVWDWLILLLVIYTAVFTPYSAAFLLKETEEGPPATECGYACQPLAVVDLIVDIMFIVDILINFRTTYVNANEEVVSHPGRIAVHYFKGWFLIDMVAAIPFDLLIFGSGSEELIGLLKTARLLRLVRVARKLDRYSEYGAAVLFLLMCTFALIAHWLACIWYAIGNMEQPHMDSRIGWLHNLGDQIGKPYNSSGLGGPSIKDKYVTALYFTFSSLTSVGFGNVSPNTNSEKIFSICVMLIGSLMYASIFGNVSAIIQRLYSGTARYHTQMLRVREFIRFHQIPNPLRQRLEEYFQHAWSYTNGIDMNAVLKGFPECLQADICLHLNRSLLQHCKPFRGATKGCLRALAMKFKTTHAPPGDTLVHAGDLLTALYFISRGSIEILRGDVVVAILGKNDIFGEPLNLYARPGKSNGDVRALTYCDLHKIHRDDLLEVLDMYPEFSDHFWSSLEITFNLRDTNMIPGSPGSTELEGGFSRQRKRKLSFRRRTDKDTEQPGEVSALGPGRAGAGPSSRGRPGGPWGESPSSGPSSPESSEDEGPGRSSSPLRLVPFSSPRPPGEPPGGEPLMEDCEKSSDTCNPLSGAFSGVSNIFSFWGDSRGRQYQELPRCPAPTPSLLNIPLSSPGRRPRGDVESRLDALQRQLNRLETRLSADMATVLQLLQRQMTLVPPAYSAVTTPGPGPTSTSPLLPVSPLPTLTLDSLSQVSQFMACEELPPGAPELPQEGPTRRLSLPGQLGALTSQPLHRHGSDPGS
row,Structure (SMILES),"hERG current change (%, negative = inhibition) at 10uM"
1,N#CCCN(C(=O)COC(=O)CNC(=O)c1cccs1)c1ccc(F)cc1,-19.6%
2,CC(C)(C)c1ccccc1NC(=O)Cn1cnc2cc([N+](=O)[O-])ccc2c1=O,-10.3%
3,CCOC(=O)C1CCN(C(=O)/C=C/c2cc(OC)c(OC)c(OC)c2)CC1,-1.38%
4,Cc1c(NC2=C(Cl)C(=O)N(c3ccccc3Cl)C2=O)c(=O)n(-c2ccccc2)n1C,4.52%
5,COc1ccc(NC(=O)COC(=O)CC2CCCCC2)cc1,-15.8%
6,O=c1oc2ccccc2c(Nc2ccc3ccccc3c2)c1[N+](=O)[O-],-3.9%
7,NS(=O)(=O)c1cccc(NC(=O)CCCNC(=O)c2ccc(Cl)cc2)c1,4.85%
8,O=C(CCl)NNc1nc(-c2ccccc2)c2cc(Cl)ccc2n1,1.46%
9,CCc1ccccc1NC(=O)CC(c1ccc(OC)cc1)n1cccc1 (stereo not drawn),-6.25%
10,Nc1ccccc1C(=O)NC1CCCCNC1=O (stereo not drawn),26.2%
11,CC(Sc1ccc(S(=O)(=O)N2CCOCC2)cc1[N+](=O)[O-])C(=O)O (stereo not drawn),-1.58%
12,O=C(Nc1ccc(N2CCOCC2)cc1N1CCOCC1)c1ccco1,-8.33%
13,O=S(=O)(/N=C(\Sc1ccc(Cl)cc1)c1ccccc1)c1ccccc1,28.5%
14,Cc1cccc(OCCCN2CCCCCC2)c1,-28.2%
15,CCn1c(SCC(=O)N/N=C/c2ccccc2OCC(=O)O)nnc1-c1ccc(OC)cc1,21.7%
16,CCOP(=O)(OCC)C(Nc1cccc(C)c1)c1ccc(F)cc1 (stereo not drawn),2.94%
17,CCCn1c(SCC(=O)NCc2ccccc2Cl)n[nH]c1=O,2.57%
18,C/C(=N\NC(=O)c1ccn(C)n1)c1cccc(NC(=O)c2ccc(C)s2)c1,-4.34%
19,Cn1c(=O)[nH]c(=O)c2c1nc(N1CCCCCC1)n2Cc1cccc2ccccc12,3.64%
20,Cn1c(=O)c(=O)n(C)c2cc(S(=O)(=O)N3CCCCC3)ccc21,-14.4%
21,O=c1oc2cc(OCc3ccc(F)cc3F)ccc2cc1-c1ccc2ccccc2n1,1.72%
22,Cc1noc(C)c1CSc1nnc2scc(-c3ccc(Cl)cc3)n12,-49.8%
23,CC(=O)c1cnc2c(-c3ccc(Cl)cc3)cnn2c1C,-1.45%

row,Structure (SMILES),"hERG current change (%, negative = inhibition) at 10uM"
1,CCOC(=O)N1CCC(NC(=O)c2sc(-n3cccc3)nc2C)CC1,-4.74%
2,C=CCNC(=S)N/N=C/c1ccccc1OCCOc1ccccc1,-0.289%
3,Br.Nc1ccc(Nc2nc(-c3ccncc3)cs2)cc1,-17.1%
4,COc1ccc(OC)c(-n2c(C)cc(/C=C3\C(=N)N4N=C(CC(=O)N5CCOCC5)SC4=NC3=O)c2C)c1,16.9%
5,O=C(NC1CCN(C(=O)Nc2ccccc2Cl)CC1)c1cccc(F)c1,4.81%
6,Cc1cc(=O)[nH]c(SCC(=O)Nc2nc(-c3ccccc3)cs2)n1,10.4%
7,CCc1ccccc1NC(=O)CC1S/C(=N\c2nccs2)N(CC)C1=O (stereo not drawn),-3.6%
8,Cc1ccc(-n2ncc3c(=O)n(CC(=O)N(C)C)cnc32)cc1C,4.69%
9,C=CCNC(=O)c1onc(CSc2cccc(OCC)c2)c1C(=O)O,6.3%
10,CC(Cc1cnccn1)NC(=O)c1cc(COc2ccc(F)cc2F)on1 (stereo not drawn),4.3%
11,Cc1ccccc1N(Cc1cc(=O)[nH]c2ccccc12)C(=O)C(C)C,10.5%
12,Cc1cccc(CS(=O)(=O)Cc2ccc(C(=O)O)o2)c1,16.5%
13,CCn1c(N)c(C(=O)NCCOC)sc1=S,10.5%
14,Cc1ccccc1Nc1nc(N)nc(COC(=O)C2CCCCC2)n1,8.35%
15,CCCNC(=S)N1CCC(C(=O)c2ccc(Cl)cc2)CC1,-1.59%
16,Cc1ccc(/C=N/NC(=O)NC23CC4CC(CC(C4)C2)C3)o1,-21.4%
17,CCn1c(=O)c(C(=O)Nc2ccc(C)cc2C)c(O)c2ccccc21,7.12%
18,CCOc1c(CNCCN2CCOCC2)cccc1OC.Cl,0.0932%
19,Oc1ccc(-c2ccccc2)cc1CN1CCCCCC1,-52.1%
20,CC(C)n1c(-c2ccco2)csc1=Nc1cccnc1,-10.3%
21,CC(=O)c1c(C(C)=O)c(C)n(NC(=O)c2ccccc2O)c1C,0.477%
22,Cc1ccc(C)c(S(=O)(=O)Nc2cc3c4c(c2)CC(=O)N4CCC3)c1,-0.333%
23,COc1ccc(N2CCN(CCNC(=O)Nc3ccc(C)c(Cl)c3)CC2)cc1,15.9%

row,Structure (SMILES),"hERG current change (%, negative = inhibition) at 10uM"
1,CC(=O)c1cccc(OCC(O)CNCC2COc3ccccc3O2)c1.O=C(O)C(=O)O (stereo not drawn),-13.5%
2,Cc1nc2ccccc2c2oc(C(=O)NCCCN3CCCC(C)C3)cc12 (stereo not drawn),-19%
3,COC(=O)c1ccccc1NC(=O)CC#N,7.85%
4,CCN(Cc1nc2ccccc2c(=O)[nH]1)Cc1cc(=O)oc2cc(C)c(C)cc12,-41.4%
5,O=C(COC(=O)c1ccccc1Br)NCCC1=CCCCC1,-15.9%
6,C#CCNC(=O)C1=C[C@@H](c2ccccc2)C[C@@H](OCc2ccc(CO)cc2)O1,-13.4%
7,CC(=O)N1CCSc2ccc(S(=O)(=O)NCCc3ccc(Cl)cc3)cc21,-13.5%
8,Cc1ccc(C(=O)OCC(=O)Nc2ccccc2C(F)(F)F)cc1S(=O)(=O)N1CCOCC1,-6.9%
9,O=C(COC(=O)c1cc(Cl)ccc1O)NCCC1=CCCCC1,11.5%
10,COC(=O)c1scc(C)c1NC(=O)Nc1ccccc1,3.91%
11,COc1ccc(Nc2cc(C)c3cc([N+](=O)[O-])ccc3n2)cc1,14.8%
12,Cc1nn(-c2ccccc2)c(C)c1[N+](=O)[O-],-3.51%
13,Cc1cc(C)c(NC(=O)Cn2c(=O)n(Cc3ccco3)c(=O)c3ccccc32)c(C)c1,9.28%
14,COc1ccc(/C=C/C(=O)Nc2cc(C)nn2-c2nc3ccccc3n2Cc2cccc([N+](=O)[O-])c2)cc1,-2.38%
15,COc1cc(C(=O)N2c3ccccc3CC2C)cc(OC)c1OC (stereo not drawn),10.4%
16,Cc1onc(-c2c(Cl)cccc2Cl)c1/C(N)=N/OC(=O)C(C)(C)C,-7.94%
17,COCCCNc1nc2c(-c3ccc(Cl)cc3)nnn2c2ccccc12,-16.4%
18,N#CCc1c(C#N)c(N)nc(N2CCN(C=O)CC2)c1C#N,-10.8%
19,Cc1csc2c(N3CCN(C(=O)Nc4ccc(Cl)c(Cl)c4)CC3)ncnc12,-8.47%
20,O=C(Nc1cccc2nsnc12)c1cccnc1Cl,-32.7%
21,CCCCP(=O)(CCCC)Cc1ccccc1O,13.9%
22,Nc1ccc(-c2cc3ccccc3oc2=O)cc1,9.68%
23,COc1cccc(C(=O)NCCC2=CCCCC2)c1OC,-7.52%

row,Structure (SMILES),"hERG current change (%, negative = inhibition) at 10uM"
1,CC(C)(C)c1ccc(OCCCN2CCCC2)cc1,-56.4%
2,CN(C)CCOC(=O)Cc1ccc(Cl)cc1.Cl,-5.75%
3,O=C(NN1C(=O)C2C3C=CC(C4CC34)C2C1=O)c1cccc(Cl)c1 (stereo not drawn),-3.23%
4,CCOC(=O)Cc1csc(NC(=O)c2c(C)noc2C)n1,9.3%
5,CCC(=O)N1CCc2cc(S(=O)(=O)Nc3ccccc3C)ccc21,18%
6,CCOC(=O)C1=C(COC(=O)/C=C/c2ccc(O)c(OC)c2)NC(=O)NC1C (stereo not drawn),-2.95%
7,COc1ccc(/C=N/NC(=O)c2[nH]c(C)c(C(=O)N/N=C/c3ccc(OC)cc3)c2C)cc1,2.38%
8,CCCc1cc(C(=O)Nc2ccc(C#N)cc2)no1,3.45%
9,COc1ccc(-n2nc(C(=O)NCC(=O)N3CCC4(CC3)OCCO4)c3ccccc3c2=O)cc1OC,19.7%
10,Cc1cccc(C(=O)N2c3ccccc3C(=O)OC2c2ccc3c(c2)OCO3)c1 (stereo not drawn),10.6%
11,OC(COc1ccc(Cl)cc1)CN1CCN(c2ccccn2)CC1 (stereo not drawn),-68%
12,Cc1ccc(N(CCC(=O)N2CCOCC2)S(=O)(=O)c2ccccc2)cc1,-8.57%
13,O=C(CCN1CCCCCC1)Nc1ccc2c(c1)OCCO2.O=C(O)C(=O)O,-1.98%
14,CCOc1cc(/C=C2/SC(=S)N(Cc3ccccc3)C2=O)ccc1O,14.4%
15,Clc1ccc(SCCCCn2ccnc2)cc1,-53%
16,Br.Cc1ccccc1N=C/C=C1/C=C(c2ccccc2)OC(C)(C)O1,-0.956%
17,Cc1c(C(=O)NN2CCN(C)CC2)cccc1[N+](=O)[O-],3.7%
18,COc1ccc2c(c1)CCC1C2=NN(/C(C)=C/C(C)=O)C1c1cccc(F)c1 (stereo not drawn),9.68%
19,CC(C)(C)NC(=O)NC(=O)CN1CCN(c2ccccc2O)CC1,16.8%
20,O=C(NCCNC1CCC(c2ccccc2)CC1)c1ccc(F)cc1 (stereo not drawn),-58.3%
21,CN(C(=O)c1ccc(NC(=O)Cc2ccc(NC(=O)C3CCCN(C(=O)C4CCCC4)C3)cc2)cc1)C1CC1 (stereo not drawn),14%
